Measurements: patent US11951087B2, “Eye wash compositions and methods” (priority 2021, dated 2024)

System: Staphylococcus aureus ATCC 33591 (MRSA)
Format: cell-based
Settings: disc diffusion

O=C(O)c1ccc(O)c(O)c1 [PCA, protocatechuic acid]
effectiveness against Staphylococcus aureus ATCC 33591 (MRSA): effective
